Test results: article PMC4336329 (PLoS ONE, 2015)
In all, about 310,000 compounds went through this assay and about 14,000 (4.5%) showed an effect of 50% or more. Effects have a minus sign here. Some of the results follow.

Target: human ether-à-go-go-related gene (hERG) potassium channel (human, UniProt Q12809)
Experiment: primary screen, population patch clamp on CHO cells stably expressing hERG
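Also: peak tail current of the secondary pulse compared with the same well before compound.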

Sequence of human ether-à-go-go-related gene (hERG) potassium channel (Q12809 whole entry, looked up): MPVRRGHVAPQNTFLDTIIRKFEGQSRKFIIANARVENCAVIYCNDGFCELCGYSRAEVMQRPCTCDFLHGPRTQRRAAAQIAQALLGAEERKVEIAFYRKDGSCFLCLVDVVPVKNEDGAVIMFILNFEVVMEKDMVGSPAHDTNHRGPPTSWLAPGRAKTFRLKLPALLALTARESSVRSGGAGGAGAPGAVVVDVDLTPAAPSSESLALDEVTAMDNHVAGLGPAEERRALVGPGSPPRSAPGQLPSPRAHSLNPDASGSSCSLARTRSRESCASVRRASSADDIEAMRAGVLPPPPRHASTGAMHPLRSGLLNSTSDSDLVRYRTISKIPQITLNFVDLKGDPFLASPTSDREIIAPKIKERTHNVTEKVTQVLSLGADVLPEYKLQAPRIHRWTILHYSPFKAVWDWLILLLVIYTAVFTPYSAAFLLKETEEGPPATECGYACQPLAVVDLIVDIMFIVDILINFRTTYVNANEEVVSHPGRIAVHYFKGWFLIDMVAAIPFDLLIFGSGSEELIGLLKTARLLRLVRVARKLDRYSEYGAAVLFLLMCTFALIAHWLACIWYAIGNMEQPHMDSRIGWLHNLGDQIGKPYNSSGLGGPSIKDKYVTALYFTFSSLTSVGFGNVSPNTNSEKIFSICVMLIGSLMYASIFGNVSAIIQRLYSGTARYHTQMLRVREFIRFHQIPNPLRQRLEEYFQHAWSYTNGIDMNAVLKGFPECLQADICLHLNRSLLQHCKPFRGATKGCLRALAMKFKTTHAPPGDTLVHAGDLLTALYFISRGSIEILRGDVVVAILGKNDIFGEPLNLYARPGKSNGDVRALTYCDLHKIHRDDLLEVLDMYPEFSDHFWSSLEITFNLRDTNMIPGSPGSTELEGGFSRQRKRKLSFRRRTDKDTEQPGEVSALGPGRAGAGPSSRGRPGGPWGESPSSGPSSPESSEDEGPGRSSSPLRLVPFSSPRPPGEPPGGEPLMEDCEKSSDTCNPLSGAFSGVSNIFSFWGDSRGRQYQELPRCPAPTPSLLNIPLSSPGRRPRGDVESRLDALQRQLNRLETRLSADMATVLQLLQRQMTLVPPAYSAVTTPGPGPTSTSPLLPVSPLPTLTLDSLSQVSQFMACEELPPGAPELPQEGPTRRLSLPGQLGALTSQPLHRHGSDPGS

In order of falling “hERG current change (%, negative = inhibition) at 10uM” value:
1. CCCOc1ccc(C(=O)CCNc2cccc(Cl)c2)cc1  31.5%
2. CCNC(=S)N/N=C(\C)c1cccc(C(F)(F)F)c1  26.7%
3. O=C(O)CCC(=O)NNC(=O)COc1ccc(Cl)cc1Cl  26.4%
4. Cc1nc(SCc2ccc(C#N)cc2)n[nH]1  23.7%
5. COc1ccc(/C=N/N=C2\SC(CC(=O)O)C(=O)N2c2ccccc2)cc1 (stereo not shown)  22.8%
6. CC(C)C[C@H](NC(=O)C1CC(=O)N(c2ccc3c(c2)OCO3)C1)C(=O)NC1CCCCC1 (stereo partly shown)  22.4%
7. C(=C\c1cc(/C=C/c2ccccc2)ncn1)/c1ccccc1  20.5%
8. COc1cccc(NC(=O)CSc2nnc(NC(=O)C3CCC3)s2)c1  20.2%
9. CCc1ccc(/C=C(/C#N)C(N)=S)cc1  19.1%
10. CCc1cccc(OCCCN2C(=O)NC(C)(C)C2=O)c1  17.9%
11. COC(=O)/C(=N/Nc1ccccc1Cl)Sc1nnc(C(O)c2ccccc2)n1-c1ccccc1 (stereo not shown)  16.7%
12. CCOc1ccc(NC(=O)c2ccc(S(=O)(=O)N(C)C)cc2)cc1  16.4%
13. NC(=O)CN1CCOCCOCCOCCOCCOCC1  16.3%
14. CC(=O)Nc1ccc(-c2nn[nH]n2)cc1Cl  15.7%
15. COCCNC(=S)N(CCN(C)C)Cc1cc2cc3c(cc2[nH]c1=O)OCO3  14.9%
16. Cc1nn(CC(=O)N2CCCCCC2)c(=O)c2cc3occc3n12  14.6%
17. CCc1cc2c(cc(C(=O)O)n2C)s1  14.6%
18. CC(C)c1ccc(NC(=O)N2CCOCC2)cc1  14.2%
19. Cc1ccc(-c2nnn3c2nc(NCCc2ccc(S(N)(=O)=O)cc2)c2ccccc23)cc1  13.9%
20. O=C(Nc1ccccc1Cc1ccccc1)c1oc2ccccc2c1COc1ccccc1  13.6%
21. COc1cccc(C2=NOC(C(=O)NCCN3CCOCC3)C2)c1 (stereo not shown)  11.8%
22. COCc1cc(C)nc(Nc2ccccc2OC)c1C#N  11.5%
23. Cc1ccc2nc(-c3ccccc3)cc(C(=O)O)c2c1  11.4%
24. CN(C(=O)CSc1ncccn1)C1CCS(=O)(=O)C1 (stereo not shown)  10.8%
25. Cc1ccc(C)c(S(=O)(=O)N/N=C2/CCCc3ccccc32)c1  10.6%
26. COc1cc2[nH]c(=S)nc(NCc3cccs3)c2cc1OC  10.5%
27. O=S(=O)(Nc1ccc(Cl)c(C(F)(F)F)c1)c1cnc[nH]1  10.1%
28. CCC(C)NC(=O)CC(c1ccc(OC)cc1)n1cccc1 (stereo not shown)  9.54%
29. C=CCNC(=O)c1onc(CSc2cc(C)cc(C)c2)c1C(=O)O  8.98%
30. CCc1nnc(NS(=O)(=O)c2ccc(NCc3cc(Cl)ccc3O)cc2)s1  8.78%
31. NS(=O)(=O)Cc1noc2ccccc12  8.51%
32. CCOc1ccc(-c2cc(N)n(S(=O)(=O)c3ccc(OC)c(OC)c3)n2)cc1  8.48%
33. Cc1[nH]c2ccccc2c1N=Nc1ccc(F)cc1  7.73%
34. CCCOc1ccc(C(=O)OCC(=O)c2c(N)n(C)c(=O)n(C)c2=O)cc1OCC  7.65%
35. O=S(=O)(O/N=C1\CCCc2ccccc21)c1ccccc1  7.59%
36. CC(C)CNC(=O)c1oc2ccccc2c1COc1ccccc1  7.05%
37. O=[N+]([O-])c1cc(/C=N/N2CCN(Cc3ccccc3)CC2)ccc1Cl  6.96%
38. COc1ccc([N+](=O)[O-])cc1NC(=O)/C=C/C(=O)O  6.18%
39. COc1ccccc1CN1C(=O)[C@@H]2Cc3c([nH]c4ccccc34)C(C)(C)N2C1=O  5.96%
40. COc1ccc2c(C)cc3nnnn3c2c1  4.98%
41. COc1ccc(C(=O)NCCN2CCOCC2)cc1OC  4.75%
42. CC(=O)N1CCOc2cc(S(=O)(=O)NC(C)c3ccccc3)c(Cl)cc21 (stereo not shown)  3.88%
43. COc1cc(/C=C/C(=O)O)cc(OC)c1OC  3.87%
44. CCOC(=O)c1cc(-c2ccccc2)sc1NC(=O)c1cc(OC)c(OC)c(OC)c1  3.59%
45. COc1ccc(F)cc1S(=O)(=O)NC1CCCC1  2.41%
46. O=C1NC(=O)/C(=C\c2ccc(Oc3cnccn3)cc2)S1  2.08%
47. CSc1ncccc1C(=O)OCc1nc2ccsc2c(=O)[nH]1  1.57%
48. Cn1cccc1C(=O)N1CCN(S(=O)(=O)c2ccccc2)CC1  1.24%
49. CCC(CC)C(=O)Nc1cc(C)cc(C)c1  0.735%
50. COc1ccccc1NC(=O)Nc1ccccc1C(N)=O  0.636%
51. CCCn1c(SCC(=O)Nc2ccccc2Cl)n[nH]c1=O  0.117%
52. CC(=O)CC(C)(C)Nc1nc2cc([N+](=O)[O-])ccc2o1  0.0382%
53. Cc1csc2ncc(C(=O)N3CCCc4ccccc43)c(=O)n12  -0.038%
54. Cc1ccnc(NC(NC(=O)C(C)C)(C(F)(F)F)C(F)(F)F)c1  -0.0745%
55. CC(=O)Nc1ccc(S(=O)(=O)Nc2nccc(/C=C/c3ccc(Cl)cc3)n2)cc1  -0.102%
56. Cl.Clc1ccccc1CNCc1ccncc1  -0.497%
57. Cc1ccc(S(=O)(=O)NC(CC(=O)NCc2ccco2)c2ccco2)cc1 (stereo not shown)  -0.749%
58. Cc1cccc(-n2c(SCC(N)=O)nc3c(c2=O)C2(CCCCC2)Cc2ccccc2-3)c1  -1.4%
59. O=c1cc(CO)occ1OCc1ccccc1  -1.9%
60. O=C(CNC(c1ccccc1)c1ccccc1)NCc1ccccc1Cl  -2.59%
61. Cc1ccc(Cn2nnc3c(=O)[nH]c(C4CCN(S(=O)(=O)Cc5ccccc5)CC4)nc32)cc1  -3.33%
62. COc1cc(S(=O)(=O)NC2CCCCC2C)ccc1Cl (stereo not shown)  -3.62%
63. O=C(NCCC1=CCCCC1)c1coc(=O)c(Br)c1  -4.02%
64. CCCOC(=O)C1=C(C)NC2=C(C(=O)C(C(=O)OC)C(C)C2)C1c1ccc(N(CC)CC)cc1 (stereo not shown)  -5.21%
65. CCN(CC)CCN(C(=O)c1ccc2c(c1)CCCC2)c1nc2ccc(OC)cc2s1.Cl  -5.4%
66. O=C(Nc1nc(-c2ccc(F)cc2)cs1)C1CCCO1 (stereo not shown)  -6.67%
67. O=C(OCCN=C1NS(=O)(=O)c2ccccc21)C1CC(=O)N(c2ccc(Cl)cc2)C1 (stereo not shown)  -7.04%
68. CCCCCCN1CC(O)=C(c2ccccc2)C1=N  -7.31%
69. Cn1c(=O)cc(SCC(=O)NCC2CCCO2)c2ccc(Cl)cc21 (stereo not shown)  -7.37%
70. O=C(CCCCn1c(=O)[nH]c2ccsc2c1=O)NCc1ccc2c(c1)OCO2  -7.96%
71. CC(=O)NC12CC3CC(C1)CC(C(=O)N(C)CC(=O)Nc1cccc(F)c1)(C3)C2  -7.98%
72. Cn1cc([N+](=O)[O-])c(C(=O)Nc2ccc3nc(-c4ccccc4)[nH]c3c2)n1  -8.74%
73. CC1CN(c2ccc([N+](=O)[O-])cc2C(=O)N2CCOCC2)CC(C)N1 (stereo not shown)  -9.17%
74. COCCN(C(=S)Nc1ccc(C)cc1C)C(C)c1ccco1 (stereo not shown)  -12.5%
75. O=C(Nc1ccc(F)cc1F)c1cc(-c2ccco2)nc2ccccc12  -13%
76. CCOC(=O)C1CCc2nc3ccccc3c(=O)n21 (stereo not shown)  -13.6%
77. CCOC(=O)c1ccccc1N/C=C/C(=O)c1cccs1  -14.9%
78. COc1cc(/C=N/NC(=O)C(=O)Nc2ccccn2)ccc1O  -22.4%
79. N#Cc1cccc(NC(=O)c2nc(-c3ccccc3)n(-c3ccccc3)n2)c1  -23.3%
80. C=CCC(=O)N1CCCC(CNC(=O)c2ccc(-c3ccccc3)cc2)C1 (stereo not shown)  -26.3%
81. O=C(Cn1c(SCC(=O)N2CCc3ccccc3C2)nc2ccccc21)NC1CCCC1  -26.4%
82. Cc1cc(C(=O)OCC(=O)NCc2ccco2)c(C)n1-c1ccc(F)cc1  -28.3%
83. COc1ccccc1N1CCN(C(=O)C(C)NC(=O)c2cccc([N+](=O)[O-])c2)CC1 (stereo not shown)  -29.1%
84. Cc1c(C(=O)Nc2ccc(S(=O)(=O)N(C)C3CCN(C)CC3)cc2)oc2ccccc12  -29.9%
85. COc1ccc(CCNC(=O)C(C)c2ccc([N+](=O)[O-])cc2)cc1 (stereo not shown)  -32.8%
86. COc1ccc(CN(C(=O)c2cc3ccccc3oc2=O)C2CCCCC2)cc1OC  -32.9%
87. Cc1c(C(=O)NCC(c2ccco2)N(C)C)oc2c(Cl)cccc12 (stereo not shown)  -36.9%
88. O=C(CN1C(=O)/C(=C/c2ccccc2F)Sc2ccccc21)NCCCN1CCOCC1  -46.9%
89. Cc1nnc(-c2cccc(C(F)(F)F)c2)nc1N1CCOCC1  -74.1%
90. CCCCNC(=O)c1cc2c(=O)n3cccc(C)c3nc2n(Cc2ccncc2)c1=N  -75.1%
91. COc1ccc(-c2[nH]ncc2CN2CCC(OCc3ccccc3)CC2)c(F)c1  -80.7%
